# Measured values as given in PubChem BioAssay AID686978 (National Center for Advancing Translational Sciences (NCATS), 2013).
# Several values for one entry are separate records, joined by “and”; a condition that tells them apart may be missing. Equal values may be shown once. The campaign covered roughly 420,000 compounds. About 64,000 (15%) were called active. The shares of active, inactive and inconclusive entries below differ from those in the screen. Calls come from the whole dose curve; as a rule, active = well fitted inhibition curve with a large enough effect; inconclusive = small, poorly fitted or top-dose-only effect; inactive = flat fitted curve, though single readings scatter. Potencies beside an inconclusive call are fits to weak or partial responses and may not hold up.
# Assay: qHTS for Inhibitors of human tyrosyl-DNA phosphodiesterase 1 (TDP1): qHTS in cells in absence of CPT; note: nearly all actives have a fitted effect of over 55% in size
# Conditions: DT40 Tdp1-/- hTDP1 cells, no CPT, ATP luminescence, 48 h; activity change, negative = growth inhibition: at 46.2 µM (top of the series) unless noted
# Outline: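 Chicken DT40 Tdp1-/- cells stably complemented with human TDP1 were seeded at 400 cells/well with DMSO in place of 20 nM camptothecin. After compound pinning, cells grew at least 48 hr at 37 °C; viability read by CellTiter-Glo luminescence.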
# % is set by controls: 0 for no effect and ±100 for the full control effect; potency is the fitted concentration of half-maximal effect; tags give direction and shape of the fitted curve.
SMILES,Potency,"activity change, negative = growth inhibition"
Cc1cccc(C(=O)N2CCC(n3nnc4cc(F)ccc43)CC2)c1,"inconclusive: 16.4 µM [inhibitor, single point]",–
Brc1ccc(-n2cc(-c3ccccc3)c3c(NN4CCOCC4)ncnc32)cc1,"inconclusive: 18.4 µM [inhibitor, single point]",–
Cc1cnc(CNc2nc(-c3ccoc3)nc3ccccc23)cn1,"inconclusive: 14.6 µM [inhibitor, single point]",–
COc1c2c(nc3occc13)C(CC=C(C)C)(OC)C(OC(C)=O)CC2 (configuration not stated),"inconclusive: 23.1 µM [inhibitor, single point]",–
CCOC1=C2[C@H](c3ccccc3)N(S(=O)(=O)c3ccc(C)cc3)C(C(C)(C)C)[C@H]2C(C#N)(C#N)C(C#N)(C#N)C1 (some centres not stated),active: 2.06 µM,–
CCOC(=O)c1c(N)nn(C(=O)CC)c1-c1ccccc1,–,inactive: -26.5%
COC(=O)CN1C(=O)C(O)=C(C(C)=O)C1c1ccc([N+](=O)[O-])cc1 (configuration not stated),–,inactive: -5.52%
Cc1nnc(NCc2ccc(F)cc2)c2c1nnn2Cc1ccccc1Cl,active: 2.31 µM,–
CCOc1ccc(NC(=O)CCn2nc(C)c(S(=O)(=O)N3CCCCC3)c2C)cc1,"inactive and inconclusive: 16.4 µM [inhibitor, single point]",–
COc1ccccc1CNCC(=O)Nc1cc(S(=O)(=O)N2CCCCCC2)ccc1Cl,"inconclusive: 23.1 µM [inhibitor, single point]",–
CC(=O)c1cc(-c2ccccc2)n(CCC(=O)NC2CCCCCC2)c1C,"inconclusive: 18.4 µM [inhibitor, partial curve]",–
COc1ccc(C2=C(O)C(C)N(c3ccccc3)C2=N)cc1OC (configuration not stated),–,inactive: -14.7%
Cc1cccc(Nc2nc(-c3ccc(F)c(C)c3)cs2)n1,"inconclusive: 29.1 µM [inhibitor, single point]",–
Cc1cccc(C(=O)Nc2nnc(-c3ccc(C(C)(C)C)cc3)s2)c1,"inconclusive: 13 µM [inhibitor, partial curve]",–
C=CCNC(=S)N/N=C/c1ccc(N(CC)Cc2ccccc2)cc1,active: 18.4 µM,–
COc1ccc(OC)c(NC(=O)CSC2=Nc3ccccc3C3=NC(CCC(=O)NCCc4ccccc4)C(=O)N23)c1 (configuration not stated),"inconclusive: 16.4 µM [inhibitor, single point]",–
O=C(CN1CCCC1c1cccs1)Nc1cc(S(=O)(=O)N2CCCCC2)ccc1Cl (configuration not stated),"inconclusive: 29.1 µM [inhibitor, single point]",–
O=C(NC1CCCC1)C1C(c2ccc(C(F)(F)F)cc2)=Nc2ccccc2N1C(=O)c1ccccc1 (configuration not stated),"inconclusive: 29.1 µM [inhibitor, single point]",–
CCc1ccc(N2C(=O)N(CC(=O)C(C)(C)C)c3ccccc3S2(=O)=O)cc1,active: 20.6 µM,–
COc1ccc(COC(=O)CCCN=C2NS(=O)(=O)c3ccccc32)cc1F,"inconclusive: 18.4 µM [inhibitor, single point]",–
N#Cc1cccnc1N1CCN(C(=O)COCC(=O)O)CC1,–,inactive: -10.4%
CCOC(=O)c1c(NC(=O)Cn2c(C)nc3ccccc32)sc2c1CCC2,active: 11.6 µM,–
CC(Oc1ccc2ccc(=O)oc2c1)C(=O)NC(Cc1c[nH]c2ccc(O)cc12)C(=O)O (configuration not stated),–,inactive: 2.77%
COc1ccc(Br)cc1/C=C/C(=O)OCC(=O)NCCc1ccc(S(N)(=O)=O)cc1,"inconclusive: 18.4 µM [inhibitor, single point]",–

SMILES,Potency,"activity change, negative = growth inhibition"
COC(=O)C1=C(C)NC(=O)C1(NC(=O)c1ccncc1)C(F)(F)F (configuration not stated),"inconclusive: 29.1 µM [inhibitor, single point]",–
CCn1c(=O)cc(SCC(=O)N2CCN(c3ccccc3OC)CC2)c2ccccc21,"inconclusive: 18.4 µM [inhibitor, single point]",–
O=C(NCc1ccccc1F)c1ccc(S(=O)(=O)N2CCCC2)cc1,–,inactive: -28%
COc1cccc(CNc2nc3ccc(C)cc3n3cnnc23)c1,–,inactive: -14.1%
COc1ccc(NC(=O)CC2C(=O)N(c3ccc(C)cc3)C(=O)N2Cc2ccc(C)cc2)cc1 (configuration not stated),"inconclusive: 0.13 µM [inhibitor, partial curve, poor fit]",–
C[C@H](CO)N1C[C@H](C)[C@@H](CN(C)C(=O)Nc2ccccc2F)OCc2cnnn2CCCC1=O,–,inactive: 13.7%
CCCn1c(SCC(=O)c2cc(C)c(C)cc2C)n[nH]c1=O,"inconclusive: 25.9 µM [inhibitor, single point]",–
CCOC(=O)CC1COCCN1C(=O)c1ccc2oc(Cc3ccccc3)nc2c1 (configuration not stated),–,inactive: -18.2%
Nc1c(NCc2ccccc2)c2ccccc2oc1=O,"inconclusive: 15.8 µM [inhibitor, single point]",–
O=C(CCN1C(=O)C2CCCCC2C1=O)Nc1nc(-c2ccc(F)c(F)c2)cs1 (configuration not stated),active: 18.4 µM,–
CCOC(=O)C(=CNNc1cccc(Cl)c1)C(=O)OCC,active: 20.6 µM,–
CCOc1ccc(S(=O)(=O)N2CCN(C(=S)NC3CC3)CC2)cc1,"inconclusive: 11.6 µM [inhibitor, partial curve]",–
COc1ccc(CCNC(=O)Cn2nc(C)c3c(C)n(-c4ccc(C)cc4)nc3c2=O)c(OC)c1,"inconclusive: 18.4 µM [inhibitor, single point]",–
Cc1c(Cl)cccc1NC(=O)Cn1cnc(S(=O)(=O)N2CCCC2)c1,inactive,–
O=C(c1ccco1)N1CCN(c2ncnc3scc(-c4ccc(F)cc4)c23)CC1,"inconclusive: 18.4 µM [inhibitor, single point]",–
Cc1ccc(-n2nc3c(c2NC(=O)c2ccc4c(c2)OCO4)CSC3)c(C)c1,–,inactive: -6.86%
COc1cc(OC)cc(-c2nnc(NC(=O)CCS(=O)(=O)c3ccc(C)cc3)o2)c1,"inconclusive: 29.1 µM [inhibitor, single point]",–
CCOC(=O)N1CCN(S(=O)(=O)c2cc([N+](=O)[O-])c(C)cc2C)CC1,–,inactive: -26.2%
C=CCOc1ccc(C2C(C#N)=C(N)N(N(C)C)C3=C2C(=O)CCC3)cc1 (configuration not stated),–,inactive: -19.2%
CN(Cc1ccccc1)C(=O)c1ncn(Cc2ccccc2)c1C(=O)N(C)Cc1ccccc1,active: 18.4 µM,–
CCOCCn1c2ccccc2c2nc3ccccc3nc21,"inconclusive: 29.1 µM [inhibitor, single point]",–
CCC(c1nnnn1Cc1ccco1)N(Cc1cc2cc(OC)ccc2[nH]c1=O)C1CCCCC1 (configuration not stated),active: 23.1 µM,–
COc1cc2ncnc(NCc3ccccc3)c2cc1OC,"inconclusive: 18.4 µM [inhibitor, partial curve, poor fit]",–
O=C(CNC(=O)c1cccc(F)c1)N/N=C/c1cccc([N+](=O)[O-])c1,–,inactive: -28%

SMILES,Potency,"activity change, negative = growth inhibition"
CN1CCN(C(=O)c2cc(C(C)(C)C)cc(C(C)(C)C)c2)CC1,–,inactive: -13.5%
CCOC(=O)CN1C(=O)/C(=C/c2cccc(Br)c2)Oc2ccccc21,"inconclusive: 11.6 µM [inhibitor, partial curve]",–
CN(C)c1ccc(CSc2ccccc2)cc1,–,inactive: -5.38%
COc1ccc(C2C([N+](=O)[O-])=C(C)N(C)C(=O)N2C)cc1OC (configuration not stated),"inconclusive: 23.1 µM [inhibitor, single point]",–
COC(=O)C1CCCCN1Cc1ccc2c(c1)CN(Cc1cnn(-c3ccccc3)c1)CCO2 (configuration not stated),"inconclusive: 23.1 µM [inhibitor, single point]",–
Cc1cc(C)cc(C(=O)NCC(=O)OCC(=O)N2CCCC2)c1,–,inactive: 6%
O=c1c2ccccc2nc(N2CCN(c3cccc(Cl)c3)CC2)n1-c1ccccc1,active: 2.91 µM,–
CCN(CC)CCCNC(=O)c1nn(-c2ccc(OC)cc2)c(=O)c2c1c1ccccc1n2C,–,inactive: 7.07%
CCN(CC)C(=O)c1sc2nc(-c3cccs3)cc(-c3ccc(Cl)cc3)c2c1N,"inconclusive: 16.4 µM [inhibitor, single point]",–
CCCOc1ccc(C(C)=O)cc1CSc1nc(O)cc(=O)[nH]1,active: 9.2 µM,–
N#Cc1ccc(C(=O)Nc2cccc3cccnc23)c(F)c1,–,inactive: 12.3%
COc1ccc(-c2cc(C(=O)NCCCN3CCOCC3)c3cc(C(C)C)ccc3n2)cc1,"inconclusive: 18.4 µM [inhibitor, single point]",–
O=C(OCc1nnn(Cc2ccccc2)c1-c1c(COC(=O)c2ccccc2)nnn1Cc1ccccc1)c1ccccc1,–,inactive: -26.9%
CCOc1ccc(CNC(=S)NCc2ccc(OCC)cc2)cc1,"inconclusive: 16.4 µM [inhibitor, single point]",–
O=C(Nc1cccc(-c2ccc(F)cc2)c1)C1CCCN(Cc2cccnc2)C1 (configuration not stated),"inconclusive: 18.4 µM [inhibitor, single point]",–
CCOc1cc(/C=N/NC(=O)c2ccc3c(c2)OCCO3)cc(Br)c1O,–,inactive: -1.76%
CN(C)CCNc1ccc2ncn3c4ccc(O)cc4c(=O)c1c23,active: 0.0231 µM,–
CCC(=O)Nc1ccccc1N1CCN(c2ccc(F)cc2)CC1,"inconclusive: 25.9 µM [inhibitor, single point]",–
CC(C)N(Cc1nnc(-c2ccc(Cl)cc2)o1)C(=O)C1=COCCO1,–,inactive: -48.1%
CC(=O)Oc1ccccc1C(=O)OCCN=C1NS(=O)(=O)c2ccccc21,–,inconclusive: -34.5% [inhibitor]
O=C(CNS(=O)(=O)c1cccc(C(F)(F)F)c1)NC1CCCCCC1,"inconclusive: 29.1 µM [inhibitor, single point]",–
CC1Cc2ccccc2N1C(=O)CNc1ccccc1N1CCCCC1 (configuration not stated),"inconclusive: 29.1 µM [inhibitor, single point]",–
O=C(CC(NS(=O)(=O)c1ccc(Cl)cc1)c1ccco1)NCc1cccnc1 (configuration not stated),"inconclusive: 0.58 µM [inhibitor, full curve, poor fit]",–
CCOC(=O)c1noc2ncnc(Nc3cccc(C(F)(F)F)c3)c12,–,inactive: -24.1%
